Laboratory results published in the supplement of paper PMC3334620.
The full ranking holds about 33,000 sequences; the median of “E-score (-0.5 to 0.5)” is about -0.04, and the highest 2% start at about 0.36. The list shows a part of the results.

biological target: T1, Hmlalpha2 (UniProt P0CY09); assay: PBM E-score (8-mer binding enrichment) (E-score (-0.5 to 0.5)); higher = stronger / more preferred TF binding; most listed sequences are background and not binding sites; settings: protein concentration: 200 nM; construct: GST-full length
T1 sequence: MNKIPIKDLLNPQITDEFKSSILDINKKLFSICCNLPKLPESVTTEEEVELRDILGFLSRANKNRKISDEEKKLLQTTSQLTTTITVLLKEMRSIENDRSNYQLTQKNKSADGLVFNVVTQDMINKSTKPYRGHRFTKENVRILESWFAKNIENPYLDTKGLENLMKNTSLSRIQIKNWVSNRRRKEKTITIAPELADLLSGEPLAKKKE
Outline: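 For each ungapped eight-base word taken together with its reverse complement, the Universal PBM Analysis Suite assigned an E-score. Binding data came from GST-tagged yeast transcription factors, applied at about 100-200 nM, on universal all-10-mer Agilent arrays made double-stranded by primer extension. Fluorescent anti-GST marked bound protein, and scans were normalised with masliner.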

Row | Sequence | PBM E-score
1 | AACGCGTC | 0.238
2 | CAACAGAG | 0.00262
3 | AAAACATC | 0.311
4 | GCGAAATA | 0.181
5 | GGCACCGA | -0.0545
6 | CTGTGGGC | -0.0169
7 | CGGAGACA | -0.0233
8 | CCATACCC | -0.255
9 | CCATTCCA | -0.172
10 | CTGGGAGC | -0.132
11 | AGGAGGGC | -0.171
12 | GATATACC | 0.0787
13 | AAACTTCC | -0.158
14 | GTTCCCCA | -0.0382
15 | AACGCGTT | 0.353
16 | TAGGAACA | 0.0479
17 | GATGTGAA | 0.148
18 | AAACGAAA | 0.115
19 | TAAGCTCA | 0.0656
20 | AAGCTCAG | -0.0791
21 | CCACACGA | 0.00344
22 | CGTTTGAG | 0.0542
23 | GAACTTCC | -0.0697
24 | TGGTATAA | 0.116
25 | AGATATCA | 0.0152

Row | Sequence | PBM E-score
26 | CATAGCGC | 0.141
27 | CATAACGC | 0.226
28 | GTAATTGA | 0.312
29 | GATTTACC | 0.18
30 | GACCGGGA | -0.28
31 | ATGGCAAT | 0.0992
32 | CTAGCTAC | -0.00502
33 | CAAATTCA | -0.138
34 | AATGTCCA | 0.0659
35 | GTTTGGGA | -0.0973
36 | AACAAGCT | 0.291
37 | ACACCACT | 0.149
38 | CCACCCGC | -0.136
39 | GATTCAAA | 0.0244
40 | CATCCCAC | -0.237
41 | GATAGTGC | -0.181
42 | ACTAATGG | -0.12
43 | CAGAGCCG | -0.134
44 | CCTGACAC | 0.00482
45 | ACGCCCCG | -0.232
46 | CGGCGCCA | -0.167
47 | AAGAGGAG | -0.199
48 | ATACCTAG | 0.166
49 | AGTGTGTA | 0.395
50 | CACCTTTA | 0.00338

Row | Sequence | PBM E-score
51 | GAGTTATC | -0.0822
52 | CTCATCTA | -0.167
53 | ACACTCGT | 0.0338
54 | AACATTAA | 0.286
55 | AGTACAGA | -0.00944
56 | TACCGGGA | -0.0534
57 | CGAATCAG | -0.0163
58 | ACCGCATC | -0.294
59 | AGATCACC | -0.0356
60 | CGCGATTC | -0.0628
61 | AGCACTGG | -0.223
62 | GATCCAAA | 0.143
63 | CCACTGAG | -0.178
64 | TACTACTA | 0.189
65 | AGCTCACC | -0.227
66 | ACAACCAT | 0.278
67 | AGTCCGAG | -0.112
68 | AGAGAGAG | -0.172
69 | CCGTTGGA | -0.329
70 | AACCTAGC | 0.0598
71 | GATTGTCA | 0.0647
72 | ATAACCCA | 0.0143
73 | TCCGACGA | 0.0827
74 | TGCGTCAA | 0.118
75 | CATTGCAC | 0.184

Row | Sequence | PBM E-score
76 | CAATTCCC | 0.0909
77 | CTTCAATC | 0.0162
78 | ACATTAAT | 0.199
79 | CGGAGGGC | -0.293
80 | AAAATGAC | 0.0538
81 | ACCCTCGA | -0.278
82 | AGCTGTTA | 0.0595
83 | GTACAAGA | 0.329
84 | CTCCTAGA | -0.257
85 | CAAATAGA | -0.00781
86 | AGAACCCT | -0.256
87 | ATTGAGCA | 0.0182
88 | AAGCTGTA | 0.223
89 | CGCAGTCA | -0.0665
90 | ACATGACT | 0.307
91 | CTATTGCA | 0.117
92 | ACCTGTGG | -0.199
93 | ACGCATAC | 0.236
94 | ACCGTCGC | -0.0991
95 | AGTTTCAC | 0.0645
96 | CGCTGGAC | -0.22
97 | ACTTCCGC | -0.0722
98 | AGAGTGGG | -0.215
99 | ATAATCGA | 0.025
100 | CAGTTGGG | -0.169

Row | Sequence | PBM E-score
101 | CAGTTCCC | -0.207
102 | ACGGCTGC | -0.166
103 | CTCAGGAG | -0.0606
104 | CAGACTAG | -0.151
105 | CACCAGTG | -0.14
106 | CCATCGAA | -0.132
107 | CACGGAGG | 0.0143
108 | CATACGGG | -0.0113
109 | CAAGTATA | 0.0908
110 | AGGGAAGA | -0.143
111 | AGCCGTCG | 0.00897
112 | AAATACTG | 0.0109
113 | ACTGCGCG | -0.137
114 | GACTATTA | 0.0627
115 | TTTAAAAA | 0.109
116 | ATGGATAA | -0.0525
117 | CATGTAGG | 0.407
118 | ATAACGAT | 0.0275
119 | AGGGAATC | -0.112
120 | ATGGCAGC | -0.166
121 | CTCACTGC | -0.0508
122 | AGGAAAAC | -0.0219
123 | ACCACGAA | -0.0406
124 | ACGTGATG | 0.18
125 | AAACAGCG | 0.036

Row | Sequence | PBM E-score
126 | GTGGACGA | -0.06
127 | CGTACCAA | -0.0418
128 | CTCTGTGA | 0.0893
129 | AGGTGAGA | -0.0965
130 | CTAGTACA | 0.283
131 | GGCTATTA | 0.102
132 | ATCCGAAC | -0.169
133 | AGAGCCGA | -0.106
134 | AGCTTTCC | -0.237
135 | CAACTCAG | -0.0942
136 | AGATGCAT | 0.04
137 | ACCTTACG | 0.113
138 | GGATATTA | 0.0957
139 | ATGGCGCG | 0.0794
140 | GCAGCCCC | -0.285
141 | CGTGTGCC | -0.0366
142 | AGGAGACC | -0.286
143 | CCGTGCGC | -0.0463
144 | CATGATGC | 0.0581
145 | ATAGCTTA | 0.0621
146 | AACGTCGG | -0.044
147 | ATGGCTAG | -0.174
148 | ATCCTCTA | 0.0621
149 | GGTAAGAA | -0.0659
150 | ATTTTCAG | -0.0546

Row | Sequence | PBM E-score
151 | GCTAGCCC | -0.338
152 | TCGACAAA | 0.2
153 | GTAAACCA | 0.148
154 | CTAGCGGA | -0.202
155 | CGAGGCTC | -0.226
156 | CACGCGGG | 0.0813
157 | ATTCGTAG | 0.13
158 | CTCCCCAC | -0.3
159 | AGTAATGC | 0.1
160 | AACCGAGA | -0.102
161 | GCTTCGCC | -0.364
162 | CCTTATCG | -0.0406
163 | AGGTACGC | -0.0302
164 | ACGTATTC | 0.335
165 | AACGCTGG | -0.0906
166 | AGCCGAAT | -0.091
167 | CATATCAA | 0.169
168 | CGCTAGGC | -0.265
169 | GGCCCCAA | -0.304
170 | CAGGTATA | 0.0147
171 | AAGATAGA | 0.0963
172 | ACCAGCTG | -0.213
173 | ACTTGCGG | -0.217
174 | AAGTCAGG | -0.18
175 | TACGTACA | 0.364

Row | Sequence | PBM E-score
176 | TCGCAAGA | -0.1
177 | TCCCCTAA | -0.236
178 | CTTGACGC | 0.0471
179 | GTCGGAGA | -0.101
180 | ACTGCTGC | -0.201
181 | ATCCAGAG | 0.0154
182 | GAACCACC | -0.192
183 | AGTCAGCG | -0.209
184 | GTGCAAAA | 0.151
185 | AAATTCAG | -0.0293
186 | TCCAGGAA | -0.0965
187 | CCATAGGA | -0.26
188 | CTGCGTAA | 0.417
189 | ACCAATAA | -0.00652
190 | CACCCAAA | -0.148
191 | CTTTTGCA | 0.105
192 | GACATCTA | 0.0495
193 | CACGTGTA | 0.444
194 | CCACATGG | -0.0738
195 | AGCCATTC | -0.0841
196 | AATAATAT | 0.253
197 | CTTGTCAA | 0.292
198 | AGGAGAAG | -0.164
199 | AGTACGAC | 0.107
200 | CTAGGGAC | -0.277

Row | Sequence | PBM E-score
201 | CAGCCATA | -0.172
202 | CACAGAAC | 0.188
203 | GTGTCTCA | -0.0554
204 | CGAGGCCG | -0.268
205 | AAGTCTGA | -0.158
206 | ACGGGGAT | -0.233
207 | GCAGTAGC | -0.144
208 | CACCCTCG | -0.147
209 | AACGAATA | 0.00559
210 | AGGCAATA | -0.0326
211 | TTGGAAAA | 0.0001
212 | CTTGGGTC | -0.215
213 | GAGGTCCA | -0.138
214 | CAAACTGG | -0.285
215 | ACGCGAGC | 0.0805
216 | TCGAGTAA | 0.338
217 | AGCTGTTG | 0.117
218 | AGGCGCCT | -0.0272
219 | ATGAGAAG | -0.112
